# The other results are listed elsewhere or left out.
# Target: T1, OsWOX13 (Oryza sativa, UniProt Q5QMM3 1-267)
# T1 sequence: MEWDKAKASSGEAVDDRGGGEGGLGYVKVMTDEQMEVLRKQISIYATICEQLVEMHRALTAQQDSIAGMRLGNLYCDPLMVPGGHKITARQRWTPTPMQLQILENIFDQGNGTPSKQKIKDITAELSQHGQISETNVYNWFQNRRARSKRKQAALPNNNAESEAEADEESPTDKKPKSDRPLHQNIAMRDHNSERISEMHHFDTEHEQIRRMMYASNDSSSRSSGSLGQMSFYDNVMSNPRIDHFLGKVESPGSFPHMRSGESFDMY
# Experiment: protein-binding microarray (RPBM); PBS, 2% BSA, 51.3 ng/ul salmon testes DNA, 50 uM zinc acetate, 200 nM TF, 25 C, 1 h; high values mean tight binding
# Conditions: protein: recombinant; tags: N-terminal polyhistidine and DsRed monomer fusion (pET32a); label: CyDye5-dUTP incorporated in the synthesized complementary strand; 3' TTTTT single-stranded linker to array surface; dsDNA, one strand shown
# In short: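 Binding signal is defined as the fluorescence intensity of each feature in arbitrary units, read on an Axon 4000B scanner. Transcription factors with N-terminal polyhistidine and DsRed fusions came from E. coli BL21-CodonPlus and were purified on Ni–NTA. They were incubated at 200 nM for 1 h at 25 °C on a custom Agilent array that had been made double-stranded with Cy5-dUTP, with 50 µM zinc acetate present, and the array was washed.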
row,Sequence,binding signal
1,ACTAAAATTACATATGTAATTTAGGGACTTACAATGTAAACGGAGTCACCTAGTGCAG,18300 fluorescence intensity (a.u.)
2,TCTTAAATTGGCTATAGATGAATTGGAGGACTATGCTATTCGGAGTCACCTAGTGCAG,29700 fluorescence intensity (a.u.)
3,CCAGATTGATGGCTATCATCAGGCCATGCTGTTCTCGTCTCGGAGTCACCTAGTGCAG,59800 fluorescence intensity (a.u.)
4,CCATAGAGTGAATTGACCCTTGATTTCCATAACAGCAAGACGGAGTCACCTAGTGCAG,7040 fluorescence intensity (a.u.)
5,AATATTAATTAATTATTACAACTGTTTAAATCTTTCAATTCGGAGTCACCTAGTGCAG,34000 fluorescence intensity (a.u.)
6,ATTTTATAATTTGTAAGGAGACTGTGGTTTCTAGTGGGTTCGGAGTCACCTAGTGCAG,12000 fluorescence intensity (a.u.)
7,ACTACGTTGATTTGGTAAAGGCGCACCTTTCTGCTGGTAACGGAGTCACCTAGTGCAG,8030 fluorescence intensity (a.u.)
8,GTTATTAAATTATTTTACACACGCAGGTTCTGGTAACTGGCGGAGTCACCTAGTGCAG,12200 fluorescence intensity (a.u.)
9,GACATAATTGAAAATTCGTTACAAGTTTAAGAACCGCTAGCGGAGTCACCTAGTGCAG,23100 fluorescence intensity (a.u.)
10,ATGTATTTGCTATTAAATTAATTATAGATGATTTAGAGCTCGGAGTCACCTAGTGCAG,16300 fluorescence intensity (a.u.)
11,CTCCAATTAGAACAGGATTGCATACATCTTAACAGCAAAGCGGAGTCACCTAGTGCAG,8020 fluorescence intensity (a.u.)
12,AAAACTGGATAGTTATGATTGTAATGGCAAGAAAGTTTTGCGGAGTCACCTAGTGCAG,12700 fluorescence intensity (a.u.)
13,GGATTGATGAATCATTTCTTTCTCAGTGGTTGCTTATTTCCGGAGTCACCTAGTGCAG,11200 fluorescence intensity (a.u.)
14,ATAAATTAATATGCGATATAATACTCCACAGCAAGTTAAACGGAGTCACCTAGTGCAG,5020 fluorescence intensity (a.u.)
15,ATGTGCTAATTATTGATTTAGCCATGCGCCATCCGCGTATCGGAGTCACCTAGTGCAG,32100 fluorescence intensity (a.u.)
16,ATATTGATTTGTAACATCACAGACACACATGATCTTTAGCCGGAGTCACCTAGTGCAG,27900 fluorescence intensity (a.u.)
17,AAAATAAATTAAAATAACACAAAGCGCTAAAATGATGGGCCGGAGTCACCTAGTGCAG,14800 fluorescence intensity (a.u.)
18,AGTTAATAATTTGTGATATTGTGTTGTATGTGCCTAGCTACGGAGTCACCTAGTGCAG,18800 fluorescence intensity (a.u.)
19,AATATAATAAATTTGACGTTAATATTTTAACTCTAGGTGTCGGAGTCACCTAGTGCAG,13800 fluorescence intensity (a.u.)
20,ATATTTATAATTAGTGTCCAAACATCCGATGTGACAGGGACGGAGTCACCTAGTGCAG,9610 fluorescence intensity (a.u.)
21,AAACTTAAATTTATTTGGTATTAACACATGCAATGAGGGACGGAGTCACCTAGTGCAG,6470 fluorescence intensity (a.u.)

row,Sequence,binding signal
1,TTTCATAATATGTGGGTAATTTGTTGCAACAACGCATGTGCGGAGTCACCTAGTGCAG,4660 fluorescence intensity (a.u.)
2,AAATAACTGAGTAGATTATCGGCTTTGGATGTAATGAATTCGGAGTCACCTAGTGCAG,6590 fluorescence intensity (a.u.)
3,AGTTGATAGATGTGTTCAATGTGTTCAATTAAACTGTATCCGGAGTCACCTAGTGCAG,25600 fluorescence intensity (a.u.)
4,ATGTGTCAATTAATTATTTGCCACTCGCTGTCTATGACATCGGAGTCACCTAGTGCAG,28300 fluorescence intensity (a.u.)
5,ACTGATAGAATTAGCTCTATGCATAATGCATGGCTGTCTCCGGAGTCACCTAGTGCAG,34300 fluorescence intensity (a.u.)
6,ACTAGATTGCCGTTTAGTTTGCTACTATGTATTGCGTTAGCGGAGTCACCTAGTGCAG,28600 fluorescence intensity (a.u.)
7,ATTCATAATAATCTAGATTATAATAATTCTAAGCTGAATCCGGAGTCACCTAGTGCAG,11000 fluorescence intensity (a.u.)
8,CTAGATTGAGAGCATCTGATTCAATAATTAGACTTTCAATCGGAGTCACCTAGTGCAG,45100 fluorescence intensity (a.u.)
9,AGTAATTATAATATGTCTATTATATCAGTTGGCTATAATGCGGAGTCACCTAGTGCAG,32100 fluorescence intensity (a.u.)
10,TAAATTAATTAATTAGGTATAAATGTAATTAAGCACATCGCGGAGTCACCTAGTGCAG,55000 fluorescence intensity (a.u.)
11,AAAATAGAATGCCAATTTTGTCCAAATTTCCCAGGTACCGCGGAGTCACCTAGTGCAG,15700 fluorescence intensity (a.u.)
12,ATCTAATCAAGCACAACTCCAGTTCCTGCTTACTGCCACCCGGAGTCACCTAGTGCAG,5400 fluorescence intensity (a.u.)
13,TGCATAATTCAAATCAATCGACATCGTTCATGTGCTTCAGCGGAGTCACCTAGTGCAG,10500 fluorescence intensity (a.u.)
14,ATAGGTTAATTTGCATAAATGCCAATTTTAGTTCACAACACGGAGTCACCTAGTGCAG,10300 fluorescence intensity (a.u.)
15,CTCCAATCCAATCATCATCGATCAGTACTACTGTGACCAACGGAGTCACCTAGTGCAG,23600 fluorescence intensity (a.u.)
16,AGAAATAATTACCCAATTACTACTACTAGTGCTAACATATCGGAGTCACCTAGTGCAG,31100 fluorescence intensity (a.u.)
17,GCATGATATGATTCCTCCTGCTTTGATTCCAGTACATGTCCGGAGTCACCTAGTGCAG,4020 fluorescence intensity (a.u.)
18,GGTGGTGCATTTCATCAATCAGGTTTGAAACTCTGAATATCGGAGTCACCTAGTGCAG,9870 fluorescence intensity (a.u.)
19,TTAATTAATTGCTAATTACACTAATTAATTTATTGATAGCCGGAGTCACCTAGTGCAG,65200 fluorescence intensity (a.u.)
20,TAAGCCTAATTAATCTATTATTAGCAAATGTTTACTATAGCGGAGTCACCTAGTGCAG,6510 fluorescence intensity (a.u.)
21,GCTGACATATAGTCAACCGGCTGTTACTTGCATCCGAACACGGAGTCACCTAGTGCAG,4720 fluorescence intensity (a.u.)

# Reference: PMC7819943, “Rice protein-binding microarrays: a tool to detect cis-acting elements near promoter regions in rice”
